According to PubChem BioAssay AID624417 (National Center for Advancing Translational Sciences (NCATS), 2012):
The whole screen tested about 410,000 compounds, of which about 6,400 (1.6%) were called active. Inconclusive results, whose numbers are uncertain, are shown with a selection of clear calls. Calls follow the shape of the dose curve; as a rule, active = well fitted inhibition curve with a large enough effect; inconclusive = small, poorly fitted or top-dose-only effect; inactive = no such curve, though single readings can be large or run the other way. Potencies of inconclusive entries are left out as doubtful fits.

The molecules below were run against Glucagon-like peptide 1 receptor (Homo sapiens) (UniProt P43220) (assay: qHTS of GLP-1 Receptor Inverse Agonists (Inhibition Mode)). Conditions: HEK293 GLP-1R CRE-luciferase, luminescence, 24 h, GLP-1R form is constitutively active; activity change, negative = inhibition: at 38.3 µM (top of the series) unless noted.
Chain of UniProt P43220 (P43220 whole entry, looked up): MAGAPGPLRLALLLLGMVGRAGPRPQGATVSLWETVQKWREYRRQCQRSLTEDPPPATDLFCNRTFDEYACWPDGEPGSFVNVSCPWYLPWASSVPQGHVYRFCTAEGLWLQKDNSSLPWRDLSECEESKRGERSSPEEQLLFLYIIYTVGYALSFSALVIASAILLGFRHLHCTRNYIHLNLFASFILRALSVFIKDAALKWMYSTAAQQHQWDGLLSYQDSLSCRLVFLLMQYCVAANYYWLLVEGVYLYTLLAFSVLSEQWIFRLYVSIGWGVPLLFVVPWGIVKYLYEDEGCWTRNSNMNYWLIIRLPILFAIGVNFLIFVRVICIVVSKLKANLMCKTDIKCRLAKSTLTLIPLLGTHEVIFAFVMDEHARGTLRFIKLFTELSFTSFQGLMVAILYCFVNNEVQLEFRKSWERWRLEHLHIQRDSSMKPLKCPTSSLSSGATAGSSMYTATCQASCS
Method in brief: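 qHTS in 1536-well format: reporter HEK293 cells expressing constitutive GLP-1R activity in DMEM + 10% Nu serum, 24 hr with compounds at 37 deg C, luminescence read after 12 min with detection reagent.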
% is scaled to controls: 0 for no effect and ±100 for the full control effect; potency is read from the fitted curve at half-maximal effect; tags tell the direction and shape of the fitted curve.
Also: nearly all actives have a fitted effect of over 55% in size.

SMILES | Potency | activity change, negative = inhibition
CCc1ccc(N(C(=O)CCC(=O)Nc2cc(C)on2)C(C(=O)NC2CCCC2)c2ccco2)cc1 (configuration not stated) | inconclusive [inhibitor, partial curve, poor fit] | 
CCOc1ccccc1NC(=O)NNC(=O)c1ccc2ccccc2c1 | inconclusive [inhibitor, single point] | 
Cc1ccc(CNC(=O)CSc2c3c(nc4ccc(Cl)cc24)CCCC3)o1 | inconclusive [inhibitor, partial curve, poor fit] | 
O=S(=O)(Nc1cc(Cl)cc(Cl)c1)N1CCOCC1 | inconclusive [inhibitor, full curve, poor fit] | 
C=CCCC(=O)Nc1nc(C)c(-c2csc(Nc3ccc(Cl)cc3)n2)s1 | inconclusive [inhibitor, partial curve, poor fit] | 
Cc1ccc(NC(=O)CCC(=O)N2CCOc3ccccc32)c(Cl)c1 | inconclusive [inhibitor, single point] | 
Cc1cccc(Nc2nnc(SCC(=O)Nc3ccccc3[N+](=O)[O-])s2)c1 | inconclusive [inhibitor, partial curve] | 
Cc1cc(C)c2c(C)c(C(=O)N3CCC(c4nc5ccccc5s4)CC3)oc2c1 | inconclusive [inhibitor, single point] | 
O=C(Nc1ccccc1)OC1CC2CC1C1CCCC21 (configuration not stated) | inconclusive [inhibitor, partial curve, poor fit] | 
Cc1ccccc1-c1cnc(C(O)c2ccc(Cl)c(F)c2)[nH]1 (configuration not stated) | inconclusive [inhibitor, single point] | 
O=C(NCCCN1CCN(c2ccccc2F)CC1)C1CC(=O)N(C2CCCC2)C1 (configuration not stated) |  | inactive: 2.14%
CCOC(=O)c1cc(C#N)c(Oc2cccc(C(F)(F)F)c2)nc1-c1ccccc1 | inconclusive [inhibitor, partial curve, poor fit] | 
CCn1cc(CN2CCC(C(=O)Nc3cccc(-c4cccc(Cl)c4)c3)CC2)cn1 | inconclusive [inhibitor, partial curve, poor fit] | 
O=C(c1nn2c(C(F)(F)F)cc(-c3ccc(F)cc3)nc2c1Cl)N1CCOCC1 |  | inactive: -16.1%
Cc1cccc(CNC(=O)C2CCN(c3nc4ccc(Cl)cc4[nH]3)CC2)c1 | inconclusive [inhibitor, partial curve, poor fit] | 
COc1ccc2nc(/C=N/NC(=O)[C@H](CCSC)NC(=O)OC(C)(C)C)ccc2c1 |  | inactive: 10.2%
COc1ccc(C(=O)CSc2nc3ccccc3n2CC(=O)NC(C)(C)C)cc1 | inconclusive [inhibitor, full curve] | 
CC(CCc1ccco1)NC(=O)c1cccc2c1C(=O)N(C1CCCCC1)C2 (configuration not stated) | inconclusive [inhibitor, single point] | 
Cc1ccc(NC(=O)c2ncn(CCCNCCCc3ccccc3)n2)cc1C | inconclusive [inhibitor, single point] | 
COc1ccc(-c2cc(C)no2)cc1S(=O)(=O)N1CCN(c2ccc([N+](=O)[O-])cc2)CC1 |  | inactive: -10.8%
O=S(=O)(c1ccc(Cl)cc1)c1cnc2ccccc2n1 | inconclusive [inhibitor, single point] | 

SMILES | Potency | activity change, negative = inhibition
C[C@@H]1CC=C[C@H]2[C@H]1C(=O)N(Cc1ccccc1)[C@H]2c1ccc(-c2ccoc2)cc1F | inconclusive [inhibitor, partial curve, poor fit] | 
COc1cccc(NC(=O)CN(c2cccc(C(F)(F)F)c2)S(C)(=O)=O)c1 | inconclusive [inhibitor, single point] | 
Cc1ccc(Nc2nc(-c3cccnc3)cs2)cc1Cl | inconclusive [inhibitor, partial curve, poor fit] | 
COc1cc(Cl)ccc1OC1(C)CCN(Cc2cccn2-c2nccs2)C1 (configuration not stated) | inconclusive [inhibitor, partial curve, poor fit] | 
O=C(/C=C/c1ccco1)NC(=S)Nc1cccc(C(=O)O)c1 |  | inactive: 16%
Cc1ccc(CNc2nc(-c3cccs3)nc3ccccc23)cc1 | inconclusive [inhibitor, single point] | 
O=C(NC1CCCCC1)C(c1ccc(C(F)(F)F)cc1)n1c(=O)c(-c2cc3ccccc3[nH]2)nc2ccccc21 (configuration not stated) | active: 2.51 µM | 
Cc1ccc(C2=NC3(CCCCC3)N=C2SCC(=O)Nc2ccc3c(c2)OCCO3)cc1 | inconclusive [inhibitor, single point] | 
Cc1nc(N2N=C3/C(=C/c4ccc(F)cc4)CCCC3C2c2ccc(F)cc2)sc1C(=O)N(C)C (configuration not stated) | active: 10 µM | 
CCCCCCCCCCS(=O)(=O)N/N=C/c1ccc([N+](=O)[O-])cc1 | inconclusive [inhibitor, single point] | 
CN(C)Cc1csc(Nc2ccc(C(F)(F)F)cn2)n1 | inconclusive [inhibitor, full curve] | 
Cc1nn(C(C)C(=O)NCc2cccc(F)c2)c(=O)c2c1sc1ccccc12 (configuration not stated) |  | inactive: -2.24%
CCCC(c1nnnn1Cc1cccs1)N1CCN(c2ccc(OC)cc2)CC1 (configuration not stated) | inconclusive [inhibitor, partial curve, poor fit] | 
O=C(COC(=O)c1ccc(OC(F)F)cc1)NCCCN1CCCC1=O |  | inactive: 5.78%
Cc1ccc2cc(CN(CC3CCCO3)C(=S)Nc3ccccc3)c(=O)[nH]c2c1 (configuration not stated) | inconclusive [inhibitor, full curve] | 
Cc1ccc(S(=O)(=O)N2CCCC2CNC(=O)C(=O)Nc2ccc(F)cc2F)cc1 (configuration not stated) | inconclusive [inhibitor, partial curve, poor fit] | 
O=C(CCc1ccccc1)NC(=S)Nc1cccc(Br)c1 | inconclusive [inhibitor, single point] | 
O=C(CNc1ccc2ccccc2c1)N/N=C/c1cc2ccccc2nc1Cl | inconclusive [inhibitor, single point] | 
COc1ccccc1NC(=O)CCNS(=O)(=O)c1ccc2c(c1)CCCC(=O)N2 |  | inactive: -1.93%
COc1ccc(/C=N/N2CCN(C3c4ccccc4-c4ccccc43)CC2)cc1O | inconclusive [inhibitor, partial curve, poor fit] | 
CCCCCN(C(=O)CCC(=O)OCc1ccc(Cl)cc1Cl)c1c(N)n(CCCC)c(=O)[nH]c1=O | inconclusive [inhibitor, single point] | 

SMILES | Potency | activity change, negative = inhibition
CCn1c(=O)cc(SCC(=O)N2CCN(c3cc(C)ccc3C)CC2)c2ccccc21 | inconclusive [inhibitor, partial curve, poor fit] | 
COc1ccc(C(CNC(=O)c2ccc(Cl)c(S(=O)(=O)N3CCCC3)c2)N2CCCC2)cc1 (configuration not stated) | inconclusive [inhibitor, single point] | 
COc1ccc(NC(=O)NCCCCc2ccccc2)cc1 | active: 6.31 µM | 
O=C(NCc1cccs1)c1cc(-c2cccs2)on1 |  | inactive: 0%
COC(=O)c1[nH]c2cc(OC)ccc2c1NC(=O)CCN1CCN(c2cccc(C)c2C)CC1 | inconclusive [inhibitor, partial curve, poor fit] | 
CCc1nnc(N2C(=O)c3ccccc3C2(O)c2ccccc2)s1 (configuration not stated) |  | inactive: -18.2%
CCN1C(=O)NC(c2cc(Br)ccc2OC)C(C(=O)OC)=C1C (configuration not stated) | inconclusive [inhibitor, partial curve, poor fit] | 
O=C1CSC(=Nc2ccc(Cl)cc2)N1 |  | inactive: -0.522%
CCCCc1nc2sc3c(SCCN(C)C)ncnc3c2c2c1CCC2 | inconclusive [inhibitor, partial curve, poor fit] | 
CCCCCCCCN1C(=O)[C@H](CC(=O)N2CCCCC2)C[C@@]2(C(=O)OC)CCCCC=C12 | inconclusive [inhibitor, single point] | 
CCc1nnc(NC(=O)CCC(=O)N2CCC(Cc3ccccc3)CC2)s1 | inconclusive [inhibitor, full curve, poor fit] | 
O=C(Nc1cccc([N+](=O)[O-])c1)Nc1ccc2c(c1)CCC2 | inconclusive [inhibitor, partial curve] | 
Cc1cccc(C(=O)NN2C(=O)C3C(c4ccccc4)C=CC(c4ccccc4)C3C2=O)c1 (configuration not stated) | inconclusive [inhibitor, single point] | 
CCOCN(C(=O)CSc1nc2ccccc2[nH]1)c1c(C)cccc1CC | inconclusive [inhibitor, single point] | 
CCCCN(CC)C(=O)Cn1nc(C)c2c(C)n(-c3ccccc3)nc2c1=O |  | inactive: -7.46%
CCN(CC)C(=O)C1=C(C)N(Cc2ccc(OC)cc2)C(=O)C(CC(=O)NCC2CCCCC2)C1 (configuration not stated) | inconclusive [inhibitor, single point] | 
COc1ccc(C)cc1NCc1cc(=O)oc2cc(-c3ccccc3)c(O)cc12 | inconclusive [inhibitor, full curve, poor fit] | 
COc1ccc(NC(=O)N(C)C[C@@H]2OCc3ccccc3-c3c(n(C)c4ccccc34)C(=O)N([C@H](C)CO)C[C@H]2C)c(OC)c1 | inconclusive [inhibitor, partial curve, poor fit] | 
O=C(C1CCN(CC2CC=CCC2)CC1)N(CCc1ccccc1)Cc1ccccc1 (configuration not stated) | inconclusive [inhibitor, partial curve, poor fit] | 
O=C(c1cn(CC2CCCCC2)nn1)N1CCN(c2ccc(F)cc2)CC1 | inconclusive [inhibitor, partial curve, poor fit] | 
